# Measurements as given in PubChem BioAssay AID588855 (National Center for Advancing Translational Sciences (NCATS), 2011).
# Among all 410,000 compounds or so, about 5,000 (1.2%) were called active. The inconclusive results got no clear call from the source; some entries with a clear call stand among them for comparison. The call rests on the fitted dose curve; in most records, active means well fitted inhibition curve with a large enough effect; inconclusive means small, poorly fitted or top-dose-only effect; inactive means no such curve, though single readings can be large or run the other way. Where the call is inconclusive, the potency comes from a doubtful curve fit.
# Assay: qHTS for Inhibitors of TGF-b; further: nearly all actives have a fitted effect of over 65% in size
# Conditions: HepG2 CAGA-GFP TGF-b/SMAD3 reporter, GFP fluorescence, 18 h, TGF-beta stimulated, 500 pg/mL final; series mostly up to 46.1 µM; activity, negative = inhibition: at the top concentration
# Method in brief: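 Cell-based qHTS in HEPG2 carrying a CAGA-GFP Smad reporter; compounds added before 500 pg/mL final TGF-beta, 18 h incubation at 37 degrees C, GFP fluorescence quantified per cell by imaging cytometry.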
# On the % scale 0 is the no-effect control and ±100 the full control effect; potency means the concentration at half of the fitted maximal effect; tags describe the fitted curve by direction and shape.
Compound,Potency,"activity, negative = inhibition"
O=C(c1cc(-c2ccccc2)n[nH]1)N1CCc2c([nH]c3ccccc23)C1c1ccccn1 (stereo unspecified),active: 20 µM,
CCOC(=O)c1oc2cc(O)c(CC)cc2c(=O)c1-c1ccc2c(c1)OCCO2,,inactive: -4.43%
O=C(/C=C/c1ccc(Br)cc1)c1ccco1,"inconclusive: 35.5 µM [inhibitor, single point]",
COc1ccccc1-c1noc(CCC(=O)Nc2cccnc2)n1,,inactive: -4.79%
Cc1ccc[n+](CC(=O)Nc2cccc([N+](=O)[O-])c2)c1,"inconclusive: 35.5 µM [inhibitor, single point]",
COc1ccccc1NC(=O)c1cccc(S(=O)(=O)N2CCN(Cc3ccccc3)CC2)c1,,inactive: -3.42%
Cc1cc(NS(=O)(=O)c2ccc(NC(=S)NC(=O)/C=C/c3ccccc3)cc2)no1,"inconclusive: 35.5 µM [inhibitor, single point]",
COc1cc(OC)c(-c2nnc(-c3ccc(OC)c(OC)c3OC)o2)cc1OC,"inconclusive: 3.16 µM [inhibitor, partial curve, poor fit]",
COc1ccc(NC(=O)C2CCCN(c3ncnc4onc(-c5ccc(F)cc5)c34)C2)cc1 (stereo unspecified),,inactive: 0.532%
S=C(NCCc1ccc(Cl)cc1)NC1CCCCC1,"inconclusive: 12.6 µM [inhibitor, partial curve, poor fit]",
Cc1cccc(CSc2cn(CC(=O)N3CCCC3)c3ccccc23)c1,"inconclusive: 35.5 µM [inhibitor, single point]",
O=C(Nc1c(-c2ccc3c(c2)OCO3)[nH][nH]c1=O)c1ccccc1,"inconclusive: 35.5 µM [inhibitor, single point]",
Cc1c(C(=O)NCCc2ccc(Cl)cc2)sc2nc3n(c(=O)c12)CCC3,,inactive: 1.65%
COc1ccc(Br)cc1CN(C)CC(=O)Nc1cc(Cl)ccc1Cl,"inconclusive: 3.98 µM [inhibitor, single point]",
CCCn1c(C(C)Nc2nc(-c3ccc(C)cc3)cs2)nc2cc(Cl)c(Cl)cc21 (stereo unspecified),"inconclusive: 7.94 µM [inhibitor, partial curve, poor fit]",
COc1cccc(-c2nc(CS(=O)(=O)CC(=O)NC3CCC(C)CC3)c(C)o2)c1 (stereo unspecified),"inconclusive: 11.2 µM [inhibitor, partial curve]",
CCOc1ccc(-c2nc(CSCC(=O)N3CCN(c4cccc(OC)c4)CC3)c(C)o2)cc1,,inactive: -8.32%
CCOc1ccccc1CNC(=O)c1cc2cc(S(=O)(=O)N3CCCCC3)ccc2n1C,"inconclusive: 6.31 µM [inhibitor, single point]",
CCN(CC)S(=O)(=O)c1ccc(-c2nnc(SCC(=O)Nc3nc(C)cs3)o2)cc1,"inconclusive: 20 µM [inhibitor, partial curve, poor fit]",
COc1ccc(NC2C=CS(=O)(=O)C2)c(OC)c1 (stereo unspecified),,inactive: -3.07%
CCOc1cc(C)nc(NCCc2ccc(OC)c(OC)c2)n1,,inactive: -28.1%
CC(=O)C1(O)C(C)CC2C3CC=C4CC(O)CCC4(C)C3CCC21C (stereo unspecified),,inactive: 8.99%
O=C(Nc1ccc(Cl)cc1)Nc1nnc(/C=C/c2ccccc2)s1,active: 7.08 µM,
COc1ccc(/C=N\NC(=O)c2ccccc2F)cc1COc1ccc(F)cc1F,"inconclusive: 4.47 µM [inhibitor, partial curve]",

Compound,Potency,"activity, negative = inhibition"
CCCNC(=O)c1onc(CSc2ccc(F)c(F)c2)c1C(=O)NCCC,,inactive: 4.48%
O=C(O)CCCCCNC(=O)CCn1nnc2ccccc2c1=O,,inactive: -4.64%
Cc1ccc(Cn2ccsc2=NC(=O)COC(=O)c2ccc(O)cc2O)cc1,"inconclusive: 35.5 µM [inhibitor, single point]",
CCOc1ccc(OCC)c2sc(C)nc12,"inconclusive: 5.62 µM [inhibitor, single point]",
O=C(CS(=O)(=O)c1ccc(Cl)cc1)N1CCN(c2ccccc2)CC1,"inconclusive: 25.1 µM [inhibitor, single point]",
CC1=C(C(N)=O)C(c2cccc(Br)c2)n2nc(SCc3ccccc3)nc2N1 (stereo unspecified),"inconclusive: 5.62 µM [inhibitor, single point]",
CC(=O)Nc1cccc(-c2ccnc3c2CC(C)(C(=O)NCc2cccs2)O3)c1 (stereo unspecified),,inactive: -22.9%
O=C(Nc1cccc(C(=O)N2CCN(c3ccc(Cl)cc3)CC2)c1)c1nsc2ccccc12,,inactive: -10.5%
COc1ccccc1CO/N=C/c1cccn1-c1nccc(N(C)C)c1C#N,"inconclusive: 7.08 µM [inhibitor, full curve]",
O=C(NCc1cccnc1)C1CCN(Cc2cc3ccccc3n2Cc2cccc(Cl)c2)CC1,"inconclusive: 35.5 µM [inhibitor, single point]",
Cc1ccccc1NC(NC(=O)OCCn1c([N+](=O)[O-])cnc1C)C(Cl)(Cl)Cl (stereo unspecified),"inconclusive: 1.12 µM [inhibitor, full curve, poor fit]",
CC(=O)N(C(C)=O)c1c(C#N)c(C)n(-c2ccccc2)c1C(=O)c1ccccc1,,inactive: -15.4%
Cc1cc(CN2CCCC(N3CCc4ccccc4C3)C2)cc(C)c1O (stereo unspecified),,inactive: 7.79%
Cn1ccnc1C(=O)c1ccc(S(=O)(=O)N2CCCC2)cc1,"inconclusive: 3.16 µM [inhibitor, single point]",
CCOC(=O)c1sc(NC(=O)CSC(=S)N2CCN(C)CC2)nc1C,,inactive: 3.13%
O=C(CSc1cn(CCNC(=O)c2c(F)cccc2F)c2ccccc12)Nc1ccc2c(c1)OCCO2,"inconclusive: 0.562 µM [inhibitor, full curve, poor fit]",
CC(Oc1ccccc1)C(=O)N[C@@H]1C(=O)N2[C@@H]1SC(C)(C)[C@@H]2C(=O)OCc1ccccc1 (stereo partly specified),"inconclusive: 35.5 µM [inhibitor, single point]",
CCCC(C(=O)NC(C)(C)C)N(Cc1ccccc1Cl)C(=O)c1snc(C(N)=O)c1N (stereo unspecified),"inconclusive: 22.4 µM [inhibitor, single point]",
COc1ccc(C2Nc3ccccc3C(=O)N2Cc2ccco2)cc1OC (stereo unspecified),"inconclusive: 12.6 µM [inhibitor, single point]",
CCOc1ccc(CCNC(=O)CS(=O)Cc2nc(-c3ccc(C)cc3)oc2C)cc1 (stereo unspecified),,inactive: -15.1%
NNC(=O)c1c(O)c2cccc3c2n(c1=O)CCC3,"inconclusive: 35.5 µM [inhibitor, single point]",
COC(=O)C1=CN(c2cccc(C)c2)C=C(C(=O)OC)C1c1cc(OC)c(O)c([N+](=O)[O-])c1,,inactive: -13.7%
O=C1CCCCN1CCCC(=O)N1CCCC(Nc2ccccc2)C1 (stereo unspecified),"inconclusive: 35.5 µM [inhibitor, single point]",
CC(Oc1ccccc1)C(=O)Nc1oc(-c2ccco2)c(-c2ccco2)c1C#N (stereo unspecified),"inconclusive: 25.1 µM [inhibitor, single point]",

Compound,Potency,"activity, negative = inhibition"
O=C1C=C(C#Cc2ccccc2)C[C@@H](c2ccc(F)cc2)C1,"inconclusive: 35.5 µM [inhibitor, single point]",
CCOC(=O)[C@H]1[C@H]2COc3ccc(Cl)cc3[C@@H]2N2C(=O)c3cc(Cl)ccc3NC(=O)[C@@]12C,"inconclusive: 35.5 µM [inhibitor, single point]",
CC(C)CC(=O)Nc1ccc(C(=O)OCc2cc(=O)n3nc(C(C)C)sc3n2)cc1,,inactive: 8.41%
CCOC(=O)c1cc(-c2ccc(C)cc2)n(CCC(=O)N2CCN(c3ccccn3)CC2)c1C,"inconclusive: 35.5 µM [inhibitor, single point]",
CCOC(=O)/C(=N\Nc1ccccc1Cl)N1CCN(Cc2ccccc2)CC1,,inactive: -9.67%
CCOc1ccccc1N(CC(=O)N1CCN(Cc2ccccc2)CC1)S(=O)(=O)c1ccccc1,,inactive: 3.74%
Cc1c(-c2nc(N)nc(Nc3ccccc3)n2)oc2ccccc12,"inconclusive: 35.5 µM [inhibitor, single point]",
CCOc1ccc(C2C(C#N)=C(N)N(c3sc4c(c3C#N)CCCC4)C3=C2C(=O)CCC3)cc1 (stereo unspecified),"inconclusive: 22.4 µM [inhibitor, single point]",
c1ccc2[nH]c(CSc3ncnc4c3oc3ccccc34)nc2c1,"inconclusive: 22.4 µM [inhibitor, single point]",
Nc1cc(Cc2ccccc2)ccc1O,,inactive: -15.7%
CCOC(=O)/C(=N\Nc1ccc(OC)cc1)c1csc(Nc2ccccc2)n1,"inconclusive: 12.6 µM [inhibitor, partial curve, poor fit]",
Nc1ccccc1SC(C[N+](=O)[O-])c1ccccc1 (stereo unspecified),"inconclusive: 22.4 µM [inhibitor, single point]",
COc1cc(NS(=O)(=O)c2ccc(NC(=O)c3ccccc3C(=O)O)cc2)nc(OC)n1,,inactive: 16.1%
CCN(CC)CCCn1c2c(c(SCC(=O)N3CCCc4ccccc43)nc1=O)CCC2,,inactive: 14%
CN(Cc1ccccc1)C(=O)c1ccc(NC(=O)C2CCCN(C(=O)OC(C)(C)C)C2)cc1 (stereo unspecified),"inconclusive: 0.112 µM [inhibitor, full curve, poor fit]",
CCOC(=O)c1cc(C)n(CC2CCC(C(=O)Nc3ccc(Cl)cc3)CC2)c1C (stereo unspecified),active: 8.91 µM,
O=C(Nc1ccc(-n2cnnn2)cc1)C1CCCN1C(=O)Nc1ccc(Br)cc1 (stereo unspecified),,inactive: -1.76%
O=C(/C=C/c1ccccc1)NC(NC(=S)Nc1ccc(Cl)cc1)C(Cl)(Cl)Cl (stereo unspecified),"inconclusive: 35.5 µM [inhibitor, single point]",
O=C(Nc1ncccc1O)c1ccc2c(c1)OCCO2,,inactive: -0.0652%
COc1cccc(OC)c1Oc1ccc(C(F)(F)F)cn1,,inactive: -8.73%
COc1ccc(OC)c(NC(=O)Cn2cc(C=O)c3ccccc32)c1,active: 10 µM,
O=C(NC(=S)NCCO)c1sc2ccccc2c1Cl,"inconclusive: 35.5 µM [inhibitor, single point]",
CC(C)(C)[C@H]1COC(=O)[C@@H](Cc2ccc(F)cc2)C/C=C\C[C@@H](CC(=O)N[C@H](CO)Cc2ccccc2)C(=O)N1,"inconclusive: 11.2 µM [inhibitor, partial curve]",
